Laboratory results: the RNAGym collection of RNA variant scans (doi:10.1093/nar/gkz1192)
The source gives no read counts; variants with many changes may rest on few reads.

B1: CPEB3 Ribozyme (parent)
chain: UAACAGGGGGCCACAGCAGAAGCGUUCACGUCGCAGCCCCUGUCAGAUUCUGGUGAAUCUGCGAAUUCUGCUGUAUAUCUC

Variants of: B1
Assay: self-cleavage, relative activity (ratio to wild type); higher = more cleavage; in vitro, sequencing
Procedure, shortened: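 Libraries of CPEB3 self-cleaving ribozyme mutants came from rounds of error-prone PCR and carried barcodes, which DNA sequencing matched to variants. In vitro transcription used T7 RNA polymerase at 37°C for 5 hours, with a further 15 min in DNase I before EDTA stopped the reaction; the ribozymes cleaved during both steps. The RNA was reverse transcribed with template switching and sequenced on Illumina. Relative activity is the cleaved/total read fraction of a variant divided by that of the unmutated ribozyme, averaged over three batches with at least 5 reads.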

Variant | self-cleavage
UAACAGGGGGCCACAGCAGAAGCAUUCACGUCGCUGCCCCUGUCAGAUUCUGGUGAAUCUGCGAAUUCUGCUGUGUAUCUC | 0.14
UAACAGGGGGCCACAGCAGAAGCAUUCACGGCGCUGCCCGUGUCAGGUUCUGGUGAGUCUGCGUAUUCUGCUGUAUAUCUC | 0.05
UAACAGGGGGCCACAGCAGAAGCAUUCGCGUCGCAGCCCCUGUCAGAUUCUGGUGAAUCUGCGAACUCUGCUGUAUAUCCC | 0.11
UAACAGGGGGCCACAGCAGAAGCAUUCACGUCGCAGCCCCUGUCAGAUUCUUGGGAAUCUGCGAGUUCUGCUGUAUAUCUC | 0.32
UAACAGGGGGCCACAGCAGAAGCAUUCACGUUGCAGCCCCUGUCAGAUUCUGGUGAAUCUGCGAAUUCAGCUGUAUAUCUC | 0.29
UAACAGGGGGCCACAGCAGAAGCACUCACGUCGCAGCCCAUGUCAGAUUCUGGUGAGUCUGCGAACUCUGCUGUAUACCUC | 0.09
UAACAGGGGGCCACAGCAGAAGCAAUCACGUCGCAGCCGCUGUCAGAUUCUGGUGAAUCUGCGAAUUCUGCUGGAUAUCUC | 0.2
UAACAGGGGGCCACAGCAGAAGCAUUCUCGUCGCAGCCCUUGUCAGAUUCAGGUGAGUCUGCGAAUUCUGCAGUAUAUCUC | 0.07
UAACAGGGGGCCACAGCAGAAGCAUCCACGUCGCAGCCCCUGUCGGAUUCUGGUGAAUCUGCGAAUUCUGCUGUAUGUCUC | 0.22
UAACAGGGGGCCACAGCAGAAGCAUUCACGUCGCAGCCCCCGUCCGACUCAGGUGAAUCAGUGAAUUCUGCUGUAUAUCUC | 0.06
UAACAGGGGGCCACAGCAGAAGCAUUCACGUCGCAGCCCUCGUCAGAUUCUGGUGGAUCUGCGAAUCCAGCUGUAUAUCUC | 0.15
UAACAGGGGGCCACAGCAGAAGCAGUCACGUCGCAGCCCCUGUCGGAUUCUGGUGAAUCUGCGAAUUCUGCUGUAUAUCUC | 0.28
UAACAGGGGGCCACAGCAGAAGCAUACACGUCGCAGCCCCUGUCAGAUUCUGGUGAAUCUGCGAAUCCUGCUGUAUACCUC | 0.08
UAACAGGGGGCCACAGCAGAAGCAUUCACGUCGCAGCCCCUGUCAGUUUCUGGUGAAUCAGCGAAAUCUGCUGUAUAUCUC | 0
UAACAGGGGGCCACAGCAGAAGCAUUCGCGUCGCAGCCCCUGUCAGAUUCUGGUGAAUCUGCGAAUUCUGCUGUAUUUCUC | 0.02
UAACAGGGGGCCACAGCAGAAGCAUUCACGUCGCGGCCCCUGUCAGAUUCUGGAGCACCUGCGAAUUCUGCUGUAUAUCUC | 0.09
UAACAGGGGGCCACAGCAGAAGCAUUCUCGUCGCAGCCCCUGUCAGAUUCAGGUGAGUCUGCGAAUUCUGCAGUAUAUCUC | 0.07
UAACAGGGGGCCACAGCAGAAGCAUUCACGUCGCAGCCCCCGUCUGGUACUGGUGGAUCUGCGAAUUCUGCUGUAUCUCUC | 0.04
UAACAGGGGGCCACAGCAGAAGCAUUCCCGUCGCAGCCCCUGUCAGAUUCUGGUGAAUCUGCGACUUCUGCUGUAUAUCUC | 0.16
UAACAGGGGGCCACAGCAGAAGCAUCCACGUCGCGGCCCCUGUCGGAUUCUGGUGAAUCUGCGAAUUCUGCUGUAUAUCUC | 0.21
UAACAGGGGGCCACAGCAGAAGCAUUCACGUCGCAGCCCCCGACUGAUUCUGGUGAAUCUGCGAAUUCUGCUGUAUAUCUC | 0.09
UAACAGGGGGCCACAGCAGAAGCAUUCACGUCGCAGCCCCUGUCGGAUUCUGGUGAAUCUGCGGAUUCUGCUGUAAAUCUC | 0.05
UAACAGGGGGCCACAGCAGAAGCAUCCACGUCGCAGCCCCUGUCAGAUUCUGGCGAAUCUGCGAAUUCUGCUGUAUGUCUC | 0.13

Variant | self-cleavage
UAACAGGGGGCCACAGCAGAAGCAUUCACGUCGCAGCCCCACUCAGAUUCUGGUGAAUCAGCGAAUUCUGCUGCAUAUCUC | 0.14
UAACAGGGGGCCACAGCAGAAGCAUUCGCGUCGCAGCCCCCGUCAGAUUCUGGUGAAUCUGCGAAUUCUGCUGUAUAUCUC | 0.13
UAACAGGGGGCCACAGCAGAAGCAGUCACGUCGCAGCCCCUGUCAGAUUCUGGUGAAUCUGCGAAUUCUGCUGUAUACCUC | 0.21
UAACAGGGGGCCACAGCAGAAGCACUCACGUCGCAGCCCCUGUCAGAUUCUGGUGUAUCUGCGAAUUCUGCUGUAUAUCUC | 0.22
UAACAGGGGGCCACAGCAGAAGCAUUCACGUCGCAGCCCCUGUCAGAUUCUGGUGAGUCUGCGAAUUCAGCUGUAUAUCUC | 0.23
UAACAGGGGGCCACAGCAGAAGCAUCCACGUCGCAGCCCCUGUCAGAUUCUGGUGAUUCUGCGAAUUCUGCUGUAUAUCUC | 0.08
UAACAGGGGGCCACAGCAGAAGCAUUCACGUCGCGGCCCCUGUCAGAUUCUGGUGAAUCUGCGAAUCCUGCUGAAUAUCUC | 0.07
UAACAGGGGGCCACAGCAGAAGCAUUCACGUCGCAGCCCCCCUCAGAUUCUGGAGAAUCUGCGAAUUCUGCUGUAUAUCUC | 0.67
UAACAGGGGGCCACAGCAGAAGCAUUCGCGUCGCAGCCCCUGUCGGAUUCUGAUGAAUCUGCGAAUUCUGCUGUAUAUCUC | 0.17
UAACAGGGGGCCACAGCAGAAGCACUCACGUCGCAGCCCCUGUCAGAUUCUGGUGAAUCAGCGAAUUCUGCUGUAUAUCUC | 0.27
UAACAGGGGGCCACAGCAGAAGCAUUCACGCCGCAGCCCCUGUCAGAUUCUGGUGAAUCAGCGAAUUCUGCUGUAUAUCUC | 0.12
UAACAGGGGGCCACAGCAGAAGCAUUCACGUCGCAGCCCCUGUCAGAUUCUGAUGAAUCUGCGGAUUCUGCUGUAUAUCUC | 0.14
UAACAGGGGGCCACAGCAGAAGCAUUCACGUCACAGGCCCUGUCAGAUUCUGGUGGAUCUGCGAAUUCUGCUGUAUAUCCG | 0.06
UAACAGGGGGCCACAGCAGAAGCAUUCACGCCGCAGCCCCUGACAGAUUCUGGUGAAUCUGCGAAUUCUGCUGAGUAUCUC | 0.08
UAACAGGGGGCCACAGCAGAAGCACUCACGUCACAGCCCCUGUCAGAUCCUGGUGAAUCAGCGAGCUCUGCUGUAUAUCUC | 0.07
UAACAGGGGGCCACAGCAGAAGCAUACACGUCGCAGCCCCCGUCAGAUUCUGGUGAAUCUGCGAAUUCUGCUGUAUAUCUC | 0.17
UAACAGGGGGCCACAGCAGAAGCAUUCACGUCGCAGCCCCUGUCAGAUUCUGGUGAGUCUGCGAGUUCUGCUGUAAAUCUC | 0.14
UAACAGGGGGCCACAGCAGAAGCAUUCACGUCGCAGCCCCUGUAAGAUUCUGGUGAAUCUUCGAUUUCUGCUGUAUAUCUC | 0.07
UAACAGGGGGCCACAGCAGAAGCAUACACGUCGCAGCCCCUGUCAGAUUCUGGUGAAUCUGCGGAUUCUGCUGUAUAUCUC | 0.27
UAACAGGGGGCCACAGCAGAAGCAUUCACGUCGCAGCCCCAGUCAGACUCUGGCGAAUCUGCGAAUUCUAAUGUAUAUCUC | 0.04
UAACAGGGGGCCACAGCAGAAGCAUUCACGUCGCGGCCCCUGCCAGAUUCUGGUGAAUCUGCGAAUUCUGCUGUAUAUCUC | 0.25
UAACAGGGGGCCACAGCAGAAGCAUUCACGUCGCAGCCCCUGUCAGAUUCUGGUGAAUCUGUGAAUUCUGCUGUAUACCUC | 0.11
UAACAGGGGGCCACAGCAGAAGCACUCACGUCGCAGCCCCUGUCAGAUUCUGGUGAAUCAGCGAAUUCUGCUGUUUAUCUC | 0.08

Variant | self-cleavage
UAACAGGGGGCCACAGCAGAAGCAUUCACGUCGCCGCCUCUGUCAGAUUCUGGUGAAUCUGCGAAUUCUACUGUAUAUCUC | 0.16
UAACAGGGGGCCACAGCAGAAGCAUUCACGUCGCAGCCCCAGUCAGAUUCUGGUGAAUCUGCGAAUUCUGCAGUAUAUCUC | 0.37
UAACAGGGGGCCACAGCAGAAGCAUUCACGUCGCAGCCCCAGUCAGAUUCUGGUGAAUCUGCGAAUUCUGCUGCAUAUCUC | 0.2
UAACAGGGGGCCACAGCAGAAGCAUUCACGUCUCAGCCCCUGUCAGAAUCUGGUGAAUCUGCGAAUUCUGCUGUAUAUCUC | 0.12
UAACAGGGGGCCACAGCAGAAGCACCCACGUCGCAGCCGCUGUCAGAUCCUGGUGAAUCUGCGUAUUCUGCUGUAUAUCUC | 0.06
UAACAGGGGGCCACAGCAGAAGCAUUCAUGUCGCGGCCCAUGUCAGAUUCUGGUGAAUCUGCGAAUCCUGCUGUAUAUCUC | 0.07
UAACAGGGGGCCACAGCAGAAGCAUUCACGUCGCAGCCCCUGUCAGAUUCUGGUGAAUCUGCGAAUUCUGCUUCACAUCUC | 0.08
UAACAGGGGGCCACAGCAGAAGCAUUCACGUCGCAGCCCCUGUCAGAUUCUGGUGGAUCUGCGGGUUCUGCUGUAUAUCCC | 0.11
UAACAGGGGGCCACAGCAGAAGCAUCCACGUCGCAGCCCCUGUCAGAUUCAGGUGAAUCUGCGAAUCCUGCUGUAUAACUC | 0.06
UAACAGGGGGCCACAGCAGAAGCAUUCACGUAGCAGCCCCUGUCAGAUUCUGGUGGAUCUGCGAAUUCUGCUGCAUAUCUC | 0.15
UAACAGGGGGCCACAGCAGAAGCAUUCACGUCGCAGCCCCAAUCAGAUUCUGGUGAAUCUGCGAAUUCCGCUGUAUAUCUC | 0.17
UAACAGGGGGCCACAGCAGAAGCAUUCACGUCGCAGCCCCUGUCAGUUCCUGGUGAAUCUGCGAAUUCUGCUGUAUAUCUC | 0.35
UAACAGGGGGCCACAGCAGAAGCAUUCACGUCGCAGCCCCUGUCAGAUUCUGGUAAAUCUGCGAAUUCUGCUGUAUAUCCC | 0.32
UAACAGGGGGCCACAGCAGAAGCAUUCACGUCGCGGCCCCCGUCAGAUUCUGGAGAAUCAGCGAAUUCUGCUGUAUAUCUC | 0.19
UAACAGGGGGCCACAGCAGAAGCAUUCUCGUCGCAGCCCCCGUCAGAUUCUGGUGUACCUGCGAAUUCUGCUGUAUAUCUC | 0.14
UAACAGGGGGCCACAGCAGAAGCAUUCACGUCGCAGCCCCCGCCAGAUUCUGGUGAGUCUGCGAAUUCUGCUGUAUAUCUC | 0.12
UAACAGGGGGCCACAGCAGAAGCAUUCUCGUCGCAGCCCCUGUCAGAUUCUGGUGAAUCAGCGAAUUCUGCUGUAUAUCUC | 0.07
UAACAGGGGGCCACAGCAGAAGCAUUCACGCCGCAGCCCCUGUCAGAUUCUGGUGGAUCUGCGAAUUCUGCUGUAUAUCUC | 0.17
UAACAGGGGGCCACAGCAGAAGCACUCACGUCGGAGCCCCUGUCAGAUCCUGGUGAAUCUGCGAAUCCUGCUGUAUAUCUC | 0.05
UAACAGGGGGCCACAGCAGAAGCAUUCACGCCGCAGCCCCUGUCAGAUUCCGGUGAAUCUACGAAUUCAGCUGUAUACCUC | 0.11
UAACAGGGGGCCACAGCAGAAGCACUCACGUCGCAGCCCCUGUCAGAUUCUGGUGAAUCUGCGAAUUCAGCUGUAUACCUC | 0.18
UAACAGGGGGCCACAGCAGAAGCAUUCACGUCGCAGCUCCUGUCAGAUUCCGGUGAAUCUGCGAAUCCUGCUGUAUAUCUC | 0.07
